Assay results published in patent US20250297021A1 (SHANDONG SIMCERE BIOPHARMACEUTICAL CO NO 1, published 2025).

How the values were obtained:
human BCMA-His protein [1] = target: T1, human BCMA-His protein (human, UniProt Q02223 1-54); assay: ELISA, human BCMA-His coated; Ab 10 nM
T1 construct: bought; also called human BCMA protein; not shown: His tag
T1 sequence (looked up): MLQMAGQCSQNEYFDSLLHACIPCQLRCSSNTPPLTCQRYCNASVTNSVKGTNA
Protocol: (§1) The specific method was as follows: Human BCMA protein (purchased from Acro, catalog number: BCA-H522y) and monkey BCMA protein (purchased from Acro, catalog number: BCA-C52H7) were diluted with PBS to a final concentration of 1 μg/mL, respectively, and then added to a 96-well ELISA plate at 50 μl/well. The plate was sealed with a plastic film and incubated overnight at 4° C., the plate was washed twice with PBS the next day, and then a blocking solution [PBS+2% (w/v) BSA] was added for blocking at room temperature for 2 h. The blocking solution was discarded, the plate was washed 3 times with PBS, and 100 nM BCMA human-mouse chimeric antibody diluted gradiently or control antibody was added at 50 μl/well. After incubation at 37° C. for 2 h, the plate was washed 3 times with PBS. HRP (horseradish peroxidase)-labeled secondary antibody (purchased from Merck, catalog number: AP113P) was added, and incubated at 37° C. for 1 h, and the plate was washed 5 times with PBS. TMB substrate was added at 50 μl/well, and incubated at room temperature for 10 min, then a stop solution (1.0 M HCl) was added at 50 μl/well. The OD450 nm values were read by an ELISA microplate reader (Multimode Plate Reader, EnSight, purchased from Perkin Elmer). The results are shown in Table 7, Table 8 and FIGS. 7A-7B and FIG. 8A-8B. All chimeric antibodies have good binding activity with human BCMA protein; except that BCMA-mAb06 has no cross-binding activity with monkey BCMA protein and BCMA-mAb07 has weak binding to monkey BCMA protein, other chimeric antibodies have good binding activity with monkey BCMA protein. The IgG subtype control is human IgG1.

human BCMA-His protein [2] = target: T1, human BCMA-His protein; assay: ELISA, human BCMA-His coated; Ab 0.1 nM
Protocol: as §1

human BCMA-His protein [3] = target: T1, human BCMA-His protein; assay: ELISA, human BCMA-His coated; Ab 100 nM
Protocol: as §1

monkey BCMA-His protein = target: T2, monkey BCMA-His protein (monkey, UniProt A0A2K5UD97 1-53); assay: ELISA, monkey BCMA-His coated; Ab 10 nM
T2 construct: bought; monkey species not further stated for this product; also called monkey BCMA protein
Protocol: as §1

human BCMA-His protein [4] = target: T1, human BCMA-His protein; assay: ELISA, human BCMA-His coated; Ab 0.001 nM
Protocol: as §1

human BCMA-His protein [5] = target: T1, human BCMA-His protein; assay: ELISA, human BCMA-His coated; Ab 0.0001 nM
Protocol: as §1

human BCMA on cells [6] = target: T3, human BCMA on cells (human, UniProt Q02223 1-184); assay: cell ELISA, Flp-inCHO-human BCMA cells; Ab 0.01 nM
T3 construct: whole, on cells; also called H929 cells; U266 cells
T3 sequence (looked up): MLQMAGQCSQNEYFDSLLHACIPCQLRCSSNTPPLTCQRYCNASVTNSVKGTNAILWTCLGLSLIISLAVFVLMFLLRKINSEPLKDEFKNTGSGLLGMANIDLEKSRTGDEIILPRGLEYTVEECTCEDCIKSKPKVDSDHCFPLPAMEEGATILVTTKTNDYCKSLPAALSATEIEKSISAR
Excerpt: (§2) The specific method was as follows: The required cells were scale-up cultured in a T-75 cell culture flask to the logarithmic growth phase, the medium was aspirated, the cells were washed twice with a PBS buffer, and then digested with trypsin. Then the digestion was terminated with a complete medium, and the cells were pipetted to obtain a single cell suspension. After the cells were counted and centrifuged, the cell precipitate was resuspended to 4×10⁵ cells per milliliter with a complete medium, and the suspension was added to a 96-well flat-bottomed cell culture plate at 100 μl/well, and cultured overnight in a 37° C., 5% carbon dioxide incubator. On the next day, the medium in the 96-well plate was discarded, the cells were washed once with PBS, and then fixed at room temperature for 0.5 h with an immunostaining fixative (purchased from Beyotime, catalog number: P0098-500 ml) at 50 μl/well. A blocking solution [PBS+5% (w/v) skim milk] was added for blocking at room temperature for 2 h. The blocking solution was discarded, the plate was washed 3 times with PBS, and 100 nM BCMA human-mouse chimeric antibody diluted gradiently or control antibody was added at 50 μl/well. After incubation at 37° C. for 2 h, the plate was washed 3 times with PBS. HRP (horseradish peroxidase)-labeled secondary antibody (purchased from Merck, catalog number: AP113P) was added, and incubated at 37° C. for 1 h, and the plate was washed 5 times with PBS. TMB substrate was added at 50 μl/well, and incubated at room temperature for 10 min, then a stop solution (1.0 M HCl) was added at 50 μl/well. The OD450 nm values were read by an ELISA microplate reader (Multimode Plate Reader, EnSight, purchased from Perkin Elmer). The chimeric antibodies bind well to Flp-inCHO-human BCMA cells. The IgG subtype control is human IgG1.

human BCMA on cells [7] = target: T3, human BCMA on cells; assay: cell ELISA, Flp-inCHO-human BCMA cells; Ab 0.05 nM
Excerpt: as §2

human BCMA on cells [8] = target: T3, human BCMA on cells; assay: cell ELISA, Flp-inCHO-human BCMA cells; Ab 0.41 nM
Excerpt: as §2

human BCMA on cells [9] = target: T3, human BCMA on cells; assay: cell ELISA, Flp-inCHO-human BCMA cells; Ab 1.23 nM
Excerpt: as §2

human BCMA on cells [10] = target: T3, human BCMA on cells; assay: cell ELISA, Flp-inCHO-human BCMA cells; Ab 11.11 nM
Excerpt: as §2

human BCMA on cells [11] = target: T3, human BCMA on cells; assay: cell ELISA, Flp-inCHO-human BCMA cells; Ab 33.33 nM
Excerpt: as §2

human BCMA on cells [12] = target: T3, human BCMA on cells; assay: cell ELISA, Flp-inCHO-human BCMA cells; Ab 100.00 nM
Excerpt: as §2

Sequence of monkey BCMA-His protein (A0A2K5UD97 entry or part of it limits assumed): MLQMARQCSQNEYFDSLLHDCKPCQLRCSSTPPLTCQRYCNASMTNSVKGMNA

B1: BCMA-mAb06 (Fc fusion)
scFv: EVKLLQSGGGLVQPGGSLKLSCAASGIDFSRYWMSWVRRAPGKGLEWIGEINPDSSTINYAPSLKDEFIISRDNAKNTLYLQMSKVRSEDTALYYCAIFYYANYYAMDYWGQGTSVTVSSGGGGSGGGGSGGGGSDIVMTQSQKFMSTSVGDRVSVTCKASQNVDTNVAWYQQKPGQSPKALIYSASYRFSGVPDRFTGSGSGTDFTLTISNVQSEDLAEYFCQQYNGYPFTFASGTKLEIK[human IgG1 Fc with C220S (EU numbers) not spelt out]
OD450 (human BCMA-His protein [1]): 2.52
OD450 (human BCMA-His protein [2]): 1.29
OD450 (human BCMA-His protein [3]): 2.53
OD450 (monkey BCMA-His protein): 0.32
OD450 (human BCMA-His protein [4]): 0.12
OD450 (human BCMA-His protein [5]): 0.09
OD450 (human BCMA on cells [6]): 0.1
OD450 (human BCMA on cells [7]): 0.27
OD450 (human BCMA on cells [8]): 0.74
OD450 (human BCMA on cells [9]): 0.99
OD450 (human BCMA on cells [10]): 1.28
OD450 (human BCMA on cells [11]): 1.21
OD450 (human BCMA on cells [12]): 1.21
